Measurements taken from the supplement of paper PMC7826260.
Some of the results follow. Each Rep nickase domain was tested in vitro on the same pool of single strands for 1 h at 37 °C with 3 µM enzyme; only the middle of the 90-letter strands is printed. Numbers give uncut DNA relative to the enzyme-free pool, as log2; uncut sequences lie near 0, cut ones below; no hit call is given. Counts are relative to all reads; uncut strands gain when others are lost, and binding without cutting may add a little.

Key:
Test in all cases: uncleaved DNA left, log2 of reads against the no-enzyme library (log2 ratio); higher = less cleavage (more negative = more Rep cleavage of the k-mer); sequences stand for … in CTCGTCCG…ACCGGAGA
[1] = system: T1, Rep nickase domain of Muscovy duck circovirus
T1 sequence (residues 1-111, tag not shown): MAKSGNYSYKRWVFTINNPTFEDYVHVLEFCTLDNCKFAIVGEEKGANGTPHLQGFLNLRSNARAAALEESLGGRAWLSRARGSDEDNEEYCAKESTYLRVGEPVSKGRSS
Protocol: (§1)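 A pool of 90-nt single-stranded DNAs with seven random bases just before the constant AC of the nick site (name = the seven bases) was cut by 3 µM recombinant His6-SUMO-tagged Rep nickase domain (300 nM DNA, 50 mM HEPES pH 8.0, 50 mM NaCl, 1 mM MnCl2, 1 h, 37 °C, three replicates). Uncut DNA was amplified and sequenced.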

[2] = system: T2, Rep nickase domain of banana bunchy top virus
T2 sequence (residues 1-94, tag not shown): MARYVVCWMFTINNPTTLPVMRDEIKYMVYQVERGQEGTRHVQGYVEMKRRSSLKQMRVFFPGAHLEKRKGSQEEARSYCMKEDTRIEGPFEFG
Protocol: as §1

[3] = system: T3, Rep nickase domain of cabbage leaf curl virus
T3 sequence (residues 1-116, tag not shown): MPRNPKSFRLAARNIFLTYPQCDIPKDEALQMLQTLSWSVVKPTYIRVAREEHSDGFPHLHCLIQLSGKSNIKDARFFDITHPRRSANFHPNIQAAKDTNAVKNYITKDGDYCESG
Protocol: as §1

[4] = system: T4, Rep nickase domain of chickpea chlorotic dwarf virus
T4 sequence (residues 1-124, tag not shown): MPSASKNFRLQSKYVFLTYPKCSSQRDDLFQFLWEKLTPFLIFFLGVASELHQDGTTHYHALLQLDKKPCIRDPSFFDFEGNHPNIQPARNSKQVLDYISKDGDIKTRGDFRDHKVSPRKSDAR
Protocol: as §1

[5] = system: T5, Rep nickase domain of faba bean necrotic yellows virus
T5 sequence (residues 1-98, tag not shown): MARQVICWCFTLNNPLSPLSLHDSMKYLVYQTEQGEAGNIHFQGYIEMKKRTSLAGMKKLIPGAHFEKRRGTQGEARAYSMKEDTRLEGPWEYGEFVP
Protocol: as §1

[6] = system: T6, Rep nickase domain of maize striate mosaic virus
T6 sequence (residues 1-117, tag not shown): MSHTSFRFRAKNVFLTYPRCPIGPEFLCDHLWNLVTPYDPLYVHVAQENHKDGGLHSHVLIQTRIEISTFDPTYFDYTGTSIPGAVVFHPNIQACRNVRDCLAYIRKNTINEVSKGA
Protocol: as §1

[7] = system: T7, Rep nickase domain of porcine circovirus 2
T7 sequence (residues 2-116, tag not shown): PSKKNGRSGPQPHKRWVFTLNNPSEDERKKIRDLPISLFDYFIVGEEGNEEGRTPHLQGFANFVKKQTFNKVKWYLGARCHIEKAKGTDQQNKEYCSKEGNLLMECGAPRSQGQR
Protocol: as §1

[8] = system: T8, Rep nickase domain of tomato yellow leaf curl virus
T8 sequence (residues 1-136, tag not shown): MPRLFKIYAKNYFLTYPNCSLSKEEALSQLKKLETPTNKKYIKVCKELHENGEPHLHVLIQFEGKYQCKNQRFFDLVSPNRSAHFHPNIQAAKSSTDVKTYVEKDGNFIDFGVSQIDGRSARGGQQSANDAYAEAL
Protocol: as §1

[9] = system: T9, Rep nickase domain of wheat dwarf virus
T9 sequence (residues 1-137, tag not shown): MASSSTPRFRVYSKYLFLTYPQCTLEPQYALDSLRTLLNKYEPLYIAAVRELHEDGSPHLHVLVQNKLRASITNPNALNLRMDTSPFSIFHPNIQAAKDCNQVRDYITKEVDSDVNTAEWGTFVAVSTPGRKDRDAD
Protocol: as §1

| Sequence | uncleaved DNA left (log2) [1] | uncleaved DNA left (log2) [2] | uncleaved DNA left (log2) [3] | uncleaved DNA left (log2) [4] | uncleaved DNA left (log2) [5] | uncleaved DNA left (log2) [6] | uncleaved DNA left (log2) [7] | uncleaved DNA left (log2) [8] | uncleaved DNA left (log2) [9] |
| --- | --- | --- | --- | --- | --- | --- | --- | --- | --- |
| TCATAAT | -3.68 | -0.119 | -3 | -2.8 | -0.0648 | -1.07 | -4.01 | -0.102 | -0.341 |
| AGCGGAA | 0.165 | 0.201 | 0.162 | 0.684 | -0.0358 | 1.02 | -0.238 | 0.0558 | 0.221 |
| TATGTAT | 0.0889 | -0.0856 | -0.134 | -0.864 | -0.00959 | 0.432 | -0.205 | -0.0327 | -0.0142 |
| GTTACTG | 0.102 | -0.0186 | 0.133 | 0.532 | 0.0583 | 1.35 | 0.0165 | 0.0216 | 0.0761 |
| TATACTA | -0.0778 | -0.0643 | -0.123 | -2.65 | 0.0347 | -0.34 | -0.356 | 0.0167 | -0.0194 |
| GGCATGT | 0.0315 | 0.0239 | 0.518 | 1.35 | 0.0306 | 1.97 | 0.0912 | 0.0709 | 0.0941 |
| GGGTTAC | -0.0764 | -0.00192 | 0.667 | 1.56 | -0.0556 | 2.06 | 0.151 | 0.00248 | 0.0687 |
| AAACGAA | -0.0239 | -0.0569 | -0.197 | -0.728 | 0.0317 | -0.827 | 0.0129 | -0.185 | -0.00521 |
| GGTGAAC | 0.0825 | 0.0389 | 0.723 | 1.64 | -0.0125 | 2.09 | 0.192 | 0.034 | 0.129 |
| GGACCTC | 0.0443 | 0.116 | 0.512 | 1.23 | -0.0338 | 1.75 | 0.177 | 0.124 | 0.171 |
| CGGTTAG | 0.0716 | 0.0339 | -0.536 | -0.189 | 0.105 | -0.763 | 0.299 | 0.112 | -0.0517 |
| GGGTGCA | 0.0588 | 0.0241 | 0.774 | 1.68 | 0.0218 | 2.07 | 0.138 | -0.123 | 0.123 |
| CGGTTGG | -0.0455 | -0.069 | -0.343 | -0.221 | 0.0586 | -0.584 | 0.146 | 0.0617 | -0.0178 |
| GACCGTC | -0.0484 | -0.122 | 0.0733 | 0.135 | -0.0521 | 0.0491 | 0.0359 | -0.133 | -0.135 |
| ACGTTTG | 0.15 | 0.00651 | -0.529 | -0.347 | -0.0971 | -0.927 | 0.0224 | -0.0512 | -0.0124 |
| AGAAACA | 0.12 | 0.117 | 0.302 | -1.04 | 0.235 | 0.0996 | 0.151 | 0.0762 | 0.157 |
| ATCGGAC | -0.00728 | -0.0557 | 0.359 | 1.16 | -0.0262 | 1.34 | 0.128 | 0.00218 | 0.106 |
| GGCTGTC | 0.058 | 0.0023 | 0.447 | 1.11 | -0.0348 | 1.56 | 0.143 | -0.134 | 0.104 |
| GAATATT | -2.91 | -2.9 | -3.33 | -2.47 | -1.47 | -2.02 | -3.34 | -1.98 | -2.97 |
| TTGCGCC | -0.00908 | -0.184 | -0.695 | 0.156 | 0.0744 | -0.801 | 0.0267 | -0.103 | -0.269 |
| CTGATTC | -0.00805 | -0.137 | -0.0652 | -0.0999 | 0.0169 | -0.691 | -0.012 | 0.0701 | -0.156 |
| ATTTTGA | 0.0109 | -0.0528 | -0.218 | -0.477 | -0.0318 | -1.23 | -0.0501 | -0.0683 | -0.114 |
| GCAGAAT | -0.0169 | 0.0764 | 0.147 | 0.457 | -0.055 | 0.586 | 0.027 | 0.038 | 0.0245 |
| GATATGC | 0.075 | -0.058 | -0.349 | -0.234 | -0.0714 | -0.894 | 0.0311 | -0.0746 | -0.115 |
| CGCAGAC | -0.0352 | -0.0924 | -0.0479 | 0.297 | -0.105 | 0.0951 | 0.144 | -0.122 | 0.0155 |
| AGTGGTA | 0.0565 | -0.0954 | 0.0905 | 0.523 | -0.0461 | 1.12 | -0.546 | 0.027 | 0.00724 |
| GAATTGA | 0.0055 | -0.15 | -0.193 | -0.12 | -0.118 | -0.809 | -0.069 | -0.0717 | -0.0648 |
| TGCTAAG | 0.0406 | -0.015 | -0.759 | -0.495 | 0.101 | -1.05 | 0.259 | 0.0797 | -0.00413 |
| AGGAACA | -0.00337 | 0.0504 | 0.273 | 0.314 | -0.16 | 1.12 | -0.00453 | -0.0192 | 0.121 |
| TCGTCAT | 0.00649 | -0.02 | 0.15 | -0.229 | -0.127 | 0.0814 | -2.2 | 0.0513 | 0.0896 |
